According to publication PMC13083723 (Patterns, 2026):
The whole screen tested about 5,400 compounds, of which about 190 (3.5%) showed an effect of 50% or more. This is one part of the list.

System: Vero-E6
Test: primary screen, phospholipidosis by LipidTOX staining; higher = more effect of the substance
Conditions: 10 µM
Outline: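 Single-concentration screen at 10 μM, with DMSO 0.1 v/v % and amiodarone 10 μM as controls. Read-out is LipidTOX Red phospholipid staining, which tolerates aldehyde fixation, in Vero-E6 cells.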

SMILES | result_ITMP
COc1cc(C)c2c(Oc3cccc(C(F)(F)F)c3)c(OC)cc(NC(C)CCCN)c2n1 (stereo not drawn) | 51.6%
C[C@H](c1ccc(F)cc1CCCC(=O)O)N(c1cc(F)ccc1F)S(=O)(=O)c1ccc(Cl)cc1 | -2.3%
CC1=CC[C@@H](C(C)(C)O)C[C@@H]1O | 0.79%
CC1(C)CCC2=C(O1)c1ccccc1C(=O)C2=O | -1.72%
N[C@@H](Cc1cc(-c2ccc(Cl)cc2Cl)cc(CP(=O)(O)O)c1O)C(=O)O | -1.4%
C[n+]1ccccc1CN=O | 8.51%
CCCC1(CCC)CCC2(CCN(CCCN(CC)CC)C2)CC1 | 109%
Cc1onc(-c2ccccc2)c1C(=O)NC1C(=O)N2[C@@H]1SC(C)(C)[C@@H]2C(=O)[O-] (stereo partly drawn) | -4.06%
OCCN1C[C@H](O)[C@@H](O)[C@H](O)[C@H]1CO | -8.13%
CCC(=O)NC1CCc2cccc(OC)c2C1 (stereo not drawn) | -1.24%
S=C(NCc1ccc2c(c1)OCO2)N1CCN(c2ncnc3c2oc2ccccc23)CC1 | -1.09%
CO/N=C(\C(=O)N[C@@H]1C(=O)N2C(C(=O)O)=C(C)CS[C@H]12)c1csc(N)n1 | -9.72%
CCC(=O)O[C@H]1CCC2C3CCC4=CC(=O)CC[C@]4(C)C3CC[C@@]21C (stereo partly drawn) | 5.62%
Cc1sc2c(c1C)C(c1ccc(Cl)cc1)=N[C@@H](CC(=O)Nc1ccc(O)cc1)c1nnc(C)n1-2 | 16.1%
CCNCC(O)c1cccc(O)c1 (stereo not drawn) | -2.8%
CCCC[C@@H](NC(=O)[C@@H](Cc1cn(C(=O)OC)c2ccccc12)NC(=O)[C@H](CC(C)(C)C)NC(=O)N1[C@H](C)CCC[C@@H]1C)C(=O)[O-] | -3.76%
O=C(/C=C/C=C/c1ccc2c(c1)OCO2)N1CCCCC1 | 5.03%
COc1ccc2[nH]c(C(=O)c3ccccc3)cc2c1 | 3.11%
O=c1c2ccccc2nc2n1CCc1c-2[nH]c2ccccc12 | -5.8%

SMILES | result_ITMP
CN(C)c1ccccc1CN1CCCN(Cc2ccccc2N(C)C)C1c1ccncc1 | -1.59%
CC(=O)NCCC(=O)N[C@@H](Cc1cnc[nH]1)C(=O)O | -1.53%
CCc1c(C(=O)C(N)=O)c2c(OCC(=O)O)cccc2n1Cc1ccccc1 | -6.74%
CCN(CC)S(=O)(=O)c1ccc(C(=O)O)cc1 | 3.91%
Cc1cc(C)nc(SCC(=O)Nc2ncc(Cc3cccc4ccccc34)s2)n1 | -7.9%
Oc1cc2c(c(Cl)c1O)CCNCC2c1ccccc1 (stereo not drawn) | -2.2%
O=C(O)CCCCC1CCSS1 (stereo not drawn) | -8.17%
COCC(=O)O[C@]1(CCN(C)CCCc2nc3ccccc3[nH]2)CCc2cc(F)ccc2[C@@H]1C(C)C | 88.2%
O=C(CS(=O)C(c1ccccc1)c1ccccc1)NO (stereo not drawn) | -2.43%
COc1ccccc1N1CCN(CCCNc2cc(=O)n(C)c(=O)n2C)CC1 | -1.86%
CN1C[C@@H]2c3ccccc3Oc3ccc(Cl)cc3[C@H]2C1.CN1C[C@H]2c3ccccc3Oc3ccc(Cl)cc3[C@@H]2C1 | 65.2%
O=C(Nc1cccc(Nc2ncc(Br)c(NCCc3cnc[nH]3)n2)c1)N1CCCC1 | -3.46%
CN/C(=N\c1ccc(C2=NNC(=O)CC2C)cc1)NC#N (stereo not drawn) | -1.8%
CC(C)(O)CS(=O)(=O)Nc1ccc2c(c1)CCN(C(=O)COc1cccnc1)C2 | -1.59%
N#Cc1cc2c(OCC(O)CN3CCN(C(c4ccccc4)c4ccccc4)CC3)cccc2[nH]1 (racemic) | 25.1%
COc1cccc(-c2cc(F)ccc2[C@H]2Cc3nc(N)nc(C)c3C(=O)N2)n1 | -3.17%
CC(C)S(=O)(=O)NC[C@H](C)c1ccc(-c2ccc(CCNS(C)(=O)=O)cc2)cc1 | -1.01%
COc1nc(N)nc2c1ncn2[C@@H]1O[C@H](CO)[C@@H](O)[C@@H]1O | -10.5%
OC[C@H]1O[C@H](O[C@H]2O[C@H](CO)[C@@H](O)[C@H](O)[C@H]2O)[C@H](O)[C@@H](O)[C@@H]1O | -2.3%

SMILES | result_ITMP
CN(C)CCCn1cc(C2=C(c3c[nH]c4ccccc34)C(=O)NC2=O)c2ccccc21 | -0.11%
COc1ccccc1N1CCN(CCn2c(=O)[nH]c3c([nH]c4ccccc43)c2=O)CC1 | -1.9%
CSc1ccccc1Nc1nc(N2CCNCC2)nc2c(NCC3CC3)ncnc12 | 79.3%
Cn1c(=O)c2c(ncn2CCO)n(C)c1=O | 0.64%
CCc1cnn2c(NCc3ccc[n+]([O-])c3)cc(N3CCCC[C@H]3CCO)nc12 | -2.31%
Cn1cnc([N+](=O)[O-])c1Sc1[nH]cnc2ncnc1-2 | -1.78%
O=C1NC(=O)[C@@H](c2cn3c4c(cccc24)CCC3)[C@@H]1c1c[nH]c2ccccc12 | 1.44%
CC(C)(COP(=O)([O-])OP(=O)([O-])OC[C@H]1O[C@@H](n2cnc3c(N)ncnc32)[C@H](O)[C@@H]1OP(=O)([O-])O)[C@@H](O)C(=O)NCCC(=O)NCCS | -4.31%
CC(=O)O[C@H]1CC[C@@]2(C)C(=CC(=O)[C@@H]3[C@@H]2CC[C@]2(C)C(=O)CC[C@@H]32)C1 | -7.66%
c1ccc(CC(c2ccccc2)N2CCCCC2)cc1 (racemic) | 6.03%
CC(=O)Nc1ccc(C(=O)NC(C)(C)C)cc1 | -9.36%
O=[N+]([O-])c1cccc2c(Br)n[nH]c12 | -2.56%
Cc1cc(C)c(C2=NOC3C4CCC(C4)C23)c(C)c1 (stereo not drawn) | -1.19%
CC(=O)N[C@H]1CSSC[C@@H](C(N)=O)NC(=O)[C@H](C(C)C)NC(=O)[C@H](C)NC(=O)[C@H](Cc2cnc[nH]2)NC1=O | 0.65%
C[C@@]1(c2cc(-c3cncnc3)c(F)cc2F)CCSC(N)=N1 | 1.83%
CCc1ccc(/C=C/C(=O)Nc2ccc(C(C)=O)cc2)o1 | -2.21%
CCCN1CCN(c2ccc(C(=O)NC3(C(=O)NCC#N)CCCCC3)cc2)CC1 | -1.08%
O=S(=O)([O-])CCCS(=O)(=O)[O-] | -2.16%
CN1CCc2cc3c(cc2C1O)OCO3 (stereo not drawn) | -1.84%
